The source gives no read counts; variants with many changes may rest on few reads.
B1: OR4K15 (parent)
chain: GUUAACGGUCAUAGGCCAUGGAAACUAGGAGCACCAUUUCGCUGCCAGUGAAGAAAUGAACAAAGAAAAUCUGGGCCAGGCAGGCAUCAAAAGAAAUAGUCUUGCGCUCAACCAGAAAGUCUGUAAUCAUUUUAAGGGUA

Variants of: B1
Test: self-cleavage, relative activity (ratio to wild type); higher = more cleavage; in vitro, sequencing; the parent is a self-cleaving ribozyme

Row | Variant | self-cleavage
1 | UUUAACGGUCAUAGGCCAUGGAAACUAGGAGCACCAUUUCGCUGCCAGUGAAGAAAUGUACAGAGAAAAUCUGGGCCAGGCUGGCAUCAGAAGAGAUAGUCUUGCGCUCAACCAGAGAGUCUGUGAUCAUUUUAAGGGUA [G1U A59U A63G A82U A90G A95G A117G A125G] | 0.02
2 | AUUAACGGUCAUAGGCCAUGGAGACUAGGAGCACCAUUUCGCUGCCAGUGAAGAAAUGAACAAAGAAAAUCUGGGCCAGGCAGGCAUCAAAAGAAAUAGUCUAGCGCUCAACCAGAGAGUCUGUAAUCAUUUUAAGGGUA [G1A A23G U103A A117G] | 1.58
3 | AUUAACGGUCAUAGGCCAUGGAAACUAGGAGCGCCAUUUCGCUGCCAGUGUAGAAAUGAACAAAGAAAAUCUGGGCCAGGCAGGCGUCAAAAGAAACAGUCUCGCGCUCAACCAGAAAGUCUGUAAUCAUUUUAAGGGUA [G1A A33G A51U A86G U97C U103C] | 0.57
4 | GAUAACGGUCAUAGGCCAUGGGAACUAGGAGCACCAUUUCGCUGCCAGGGAAGAAAAGAACAAAGAAAAUCUGGGCCAGGCAGGCAUCAAAAGAAAUAGUCUUGCGCUCAACCAGAAAGUCUGUAAUCAUUUUAAGGGUA [U2A A22G U49G U57A] | 1.49
5 | UUUAACGGACAUAGGCCAUGGAAACUAGGGGCACCAUUUCGCGGCCAGUGAAGAAAUGAACAAAGAAAAUCUGGGCCAGGCAGGCAUCAAAAGAAAUAGUCUUGCGCUCAACCAGAAAGUCUGUAAUCAUUUUAAGGGUA [G1U U9A A30G U43G] | 1.77
6 | UCUAACGGCCAUAGGCCAUGGAAACUAGGAGCACCAUUUCGCUGCCAGUGAAGAAAUGAACAAAGAAAAUCUGGGCCAGGCAGGCAUCUAAAGAAAUAGUCUUGCGCUCAGCCAGAAAGUCUGUAAUAAUUUUAAGGGUA [G1U U2C U9C A89U A111G C128A] | 0.05
7 | AUUAACGGUCAUAGGCCACGGAAACUAGGAGCACCAUUUCGCUGCCAGUGAAGAAACGAACAAAGAAAAUCUGGGCCUGGCAGGCAUCAAAAGAAAUAGUCUUGCGCUCAACCAGAAAGUCUGUAAUCAUUUUAAGGGUA [G1A U19C U57C A78U] | 0.58
8 | GAUAACGGUCAUAGGCCAUGGAAACUAGGAGCGCCAUUUCGCUGCCAGUGAAUAAAUGAACAAAGAAAAUCUGGGCCAGGCAGGCAUCAAAAGAAAUAGUCUUGCGCUCAACCAGAAAGUCUGUAACCAUUUUAAGGGUG [U2A A33G G53U U127C A140G] | 0.7
9 | AUCAACGGUCAUAGGCCAUGGAAACUAGGAGCACCAUUUCGCUGCCAGUGAAGAAGUGAGCAAAGAAAAUCUGGGCCAGGCAGGCAUCAAAAGAAAUAGUCUUGCGCUCAACCAGAAAGUCGGUAAUCAUUUUAAGGGUA [G1A U3C A56G A60G U122G] | 2.91
10 | GAUAACGGUCAUAGGCCAUGGAAACUAGGUGCACCAUUUCGCUGCCAGUGAAGAAAUGAACGAAGAAAAUCUGGGCCAGGCAGGCAUCAAAAGAAAUAGUCUUGCGCUCAACCAGAAAGUCUGUAAUCAUUUUAAGGGUA [U2A A30U A62G] | 0.73
11 | CUUAGCGGUCAUAGGCCAUGGAAACUAGGAGCACCAUUACGCUGCCAGUGAAGAAAUGAACAGAGAAAAUCUGGGCCAGGCAGGCAUCAAAAGAAAUAGUCUUGCGCUCAACCAGAAAGUCUGUAAUCAUUUUAAGGGUA [G1C A5G U39A A63G] | 0.29
12 | GAUAACGGUCAUAGGCCUUGGAAACCAGGAGCGCCAUUUCGCUGCCAGUGAAGAAAUGAACAAAGAAGAUCUGGGCCGGGCAGGCAUCAAAAGAAAUAGUCUUGCGCUCAACCAGAAAGUCUGUAAUCAUUUUAAGGGUA [U2A A18U U26C A33G A68G A78G] | 0.3
13 | AUUAACGGACAUAGGCCAUGGAAACUAGGAGCACCAUCUCGCUGCCAGUGAAGAAAUGAACAAAGGAAAUCUGGGCCAGGCAGGCAUCAAAAGAAAUAGUCUUGCGCUCAGCCAGAAAGUCUGUAAUCAUUUUAAGGGUA [G1A U9A U38C A66G A111G] | 0.09
14 | UUUAACGGUCAUAGGCCAUGGAAACUAGGAGCCCCAUUUCGCUGCCAGUGAAGAAAUGAACAAAGAAAAUCUGGGCCAGGCAGGCAUCAAAAGAAAUAGUCUUGCGCUCAACCAGAAAGUCUGUAAUCAUUUUAUGGGUA [G1U A33C A135U] | 1.71
15 | ACUAACGGUCAUAGGCCAUGGAAACUAGGAGCACCAUUUCGCUGCCAGUGAAGAAAUGAACAAAGAAAAUCUGGGCCAGGCAGGCAUCUAAAGAAAUAGUCUUGCGCUCAACCAGAAAGUCUGUAAUCAUUUUAAGGGUA [G1A U2C A89U] | 1.52
16 | UUUAACGGUCAUAGGCCAUGGAAACUAGGAGCACCAUUUCGCUGCCAGUGAAGGAAUAAACAAAGAAAAUCUGGGCCAGGCAGGCAUCAAAAGAAAUAGUCUUGCGCUCAACCAGAAAGUCUGUAAUCAUUUUAAGGGUA [G1U A54G G58A] | 1.9
17 | UUUAACGGUCAUAGGCCAUGGAAACUAGGAGCCCCAUUUCGCUGCCAGUGAAGAAAUGAACAAAGAAAAUCUGGGCCAGGCAGACAUCAAAAGAAAUAGUCUUGCGCUCGACCAGAAAGUCUGUAAUCAUUUUAAGGGUA [G1U A33C G84A A110G] | 0.2
18 | GAUAACGGUCAUAGGCCAUGGAGACUAGGAGCACCAUUUCGCUGCCAGUGAAGAAAUGAACAAGGAAAAGCUGGGCCAGGCAGGCAUCAAAAGAAAUAGUCUUGCGCUCAACCAGAAAGUCUGUAAUCCUUUUAAGGGUA [U2A A23G A64G U70G A129C] | 0.34
19 | GAUAACGGUCAUAGGCCAUGGAAACUAGGUGCACCAUUUCGCUGCCAGUGAAGAGAUGAACAAAGAAAACCUGGGCCAGGCGGGCAUCAAAAGAAAUAGUCUUGCGCUCAACCAGAAAGUCUGUAAUCAUUUUAAGGGUA [U2A A30U A55G U70C A82G] | 0.6
20 | AUUAACGGUCAUAGGCCAUGGAAACUAGGAGCACCAGUUCGCUGCCAGUGAAGAAAUGAACAAAGAAAUUCUGGGCCAGGCAGGCAUCAAAAGAAAUAGUCUUGCGCUCAACCAGAAAGUCUGUAAUCAUUUUAAGGGUA [G1A U37G A69U] | 1.82
21 | UCUAACGGUCAUAGGCCAUGGAAACUAGGAGCACCAUUUCGCUGCCAGUGAAGAAAUGAACAAAGAAAAUCUGGGCCAGGCAGGCAUCAAAAGAAAUAGUCUUGCGCUCAACCAGAGAGUCUGUAAUCAUUUUAAGGGUA [G1U U2C A117G] | 1.72

From the RNAGym collection of RNA variant scans (doi:10.7554/elife.90254)
